Experimental data as given in PubChem BioAssay (NCATS).
Inconclusive results, whose numbers are uncertain, are shown with a selection of clear calls. For part of these data: No potency is given beside an inconclusive call; the fits are too rough. The source made the active and inactive calls. Unless noted, calls follow the shape of the dose curve; as a rule, active = well fitted curve in the direction sought with a large enough effect; inconclusive = small, poorly fitted or top-dose-only effect, or another doubt; inactive = no such curve, though single readings can be large; an effect the other way counts as inactive or inconclusive.

Experiments:
[1] = qHTS Assay for Identification of Small Molecule Antagonists for NFkB Signaling Pathway (AID 895; active = well fitted inhibition curve with a large enough effect in the signal ratio, with a control signal flat, not every such curve was filed as active; inconclusive = small, poorly fitted or top-dose-only effect, or effect the other way, or a change in a side signal; the % refers to the signal ratio; also: potency is read from the fitted curve at half-maximal effect); details: NFkB beta-lactamase reporter cells, FRET ratio 460/530; activity change, negative = inhibition: at 38.3 µM (top of the series) unless noted
How it was run: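 Beta-lactamase reporter read-out (460 and 530 nm emission ratio, 405 nm excitation, 2 hrs substrate loading RT) after 5 hr stimulation with 10 pM TNF alpha in compound-treated NFkB-bla ME-180 cells in low-serum medium.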

[2] = qHTS Assay for Identification of Small Molecule Agonists for Thrombopoietin (TPO) Signaling Pathway (AID 917); also: potency is read from the fitted curve at half-maximal effect
How it was run: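 Reporter: GpIIb promoter–luciferase in murine Ba/F3 expressing human TPO receptor. Pre-starved of IL-3 overnight; compounds with 26 pM TPO, 24 hrs, 37 C/5% CO2; luminescence read.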

[3] = qHTS Assay for Identification of Small Molecule Antagonists for Thrombopoietin (TPO) Signaling Pathway (AID 918); details: TPO-dependent cell signaling reporter, antagonist mode; activity change, negative = inhibition: at 38.5 µM (top of the series); also: potency is read from the fitted curve at half-maximal effect; nearly all actives have a fitted effect of over 60% in size
How it was run: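 Ba/F3 (murine, hTPO-R, GPIIb-luc reporter); overnight IL-3 withdrawal; cpd + TPO 26 pM final (EC50); 24 h 37 C/5% CO2; Steadylite luminescence after 10 min RT.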

[4] = molecular target: Muscarinic acetylcholine receptor M1 (Rattus norvegicus) (UniProt P08482); assay: qHTS Assay for Antagonists of Acetylcholine Muscarinic M1 Receptor: Kinetic Measurement of Intracellular Calcium Response (AID 943); also: potency is read from the fitted curve at half-maximal effect; nearly all actives have a fitted effect of over 75% in size
How it was run: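 Rat M1-CHO cells, 2000/well, overnight → Fluo-4 no-wash dye with probenecid, 1 h 37C → compound 10 min, room temp → basal read 6 s → carbachol EC80 (100 nM) → 4 min kinetic read; peak/basal.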

[5] = molecular target: Muscarinic acetylcholine receptor M1 (Rattus norvegicus) (UniProt P08482); assay: qHTS Assay for Antagonists of Acetylcholine Muscarinic M1 Receptor: Measurement of IP-One Response (AID 944); also: potency is read from the fitted curve at half-maximal effect; nearly all actives have a fitted effect of over 75% in size
[6] = qHTS for differential inhibitors of proliferation of Plasmodium falciparum line GB4 (AID 1816); details: Potency: Plasmodium falciparum GB4 proliferation inhibition;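 also: potency is read from the fitted curve at half-maximal effect; parasite growth measured after 72 h incubation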
[7] = qHTS for differential inhibitors of proliferation of Plasmodium falciparum line Dd2 (AID 1882); details: Potency: Plasmodium falciparum Dd2 proliferation inhibition; also: potency is read from the fitted curve at half-maximal effect; nearly all actives have a fitted effect of over 65% in size
How it was run: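 Dd2-infected erythrocytes (0.3% parasitemia, 2.5% hematocrit final) incubated with compound 72 h at 37 C, 5% CO2; lysed with saponin/Triton buffer containing SYBR Green I, incubated overnight in the dark, then read by fluorescence (485/535 nm). Normalized to 0.29 uM artemisinin and DMSO.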

[8] = molecular target: Ferritin light chain (Equus caballus) (UniProt P02791); assay: qHTS Validation Assay for Identification of Novel General Anesthetics (AID 2323); also: potency is read from the fitted curve at half-maximal effect
How it was run: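 Competitive displacement of the profluorescent anesthetic 1-AMA (50% saturated, PBS) from 10 uM apoferritin, 10 min, room temperature. Activity is normalized 380/535 nm fluorescence; concentration-response fitted with a four-parameter Hill equation.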

[9] = Validation screen for inhibitors of Lassa infection (AID 463096; calls by dose curve; also: potency is read from the fitted curve at half-maximal effect)
[10] = Validation screen for small molecules that induce DNA re-replication in MCF 10A normal breast cells (AID 463097); also: potency is read from the fitted curve at half-maximal effect; nearly all actives have a fitted effect of over 60% in size
How it was run: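 Read-out is Hoechst total nuclear intensity by fluorescence scanning imager, flagging increased high-DNA-content nuclei. Compounds were incubated with MCF 10A cells for 48 hr (37 C, 5% CO2) before 40 min staining.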

[11] = Quantitative high throughput screen for delayed death inhibitors of the malarial parasite plastid, 96 hour incubation (AID 488745); also: potency is read from the fitted curve at half-maximal effect; nearly all actives have a fitted effect of over 70% in size
How it was run: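 Infected erythrocytes were added to compound in Albumax-supplemented RPMI 1640 at 0.1% parasitemia and 2% hematocrit (final), incubated 96 h at 37 C under 5% CO2, then luciferase reagent was added and luminescence measured.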

[12] = Quantitative high throughput screen for delayed death inhibitors of the malarial parasite plastid, 48 hour incubation (AID 488752); also: potency is read from the fitted curve at half-maximal effect; nearly all actives have a fitted effect of over 65% in size
How it was run: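 Readout is firefly luciferase luminescence from a reporter integrated into the parasite genome, with lower signal taken as inhibited growth. Infected red cells (0.1% parasitemia, 2% hematocrit final) are cultured with compound for one 48 h cycle at 37 C.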

[13] = molecular target: Cytochrome P450 1A2 (Homo sapiens) (UniProt P05177); assay: p450-cyp1a2 (AID 410; calls by dose curve; also: potency is read from the fitted curve at half-maximal effect)
How it was run: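 Luminescent readout of luciferin formed from Luciferin-ME by human CYP1A2; data normalized against complete inhibition by 57 uM furafylline. Enzyme 20nM, substrate 100uM at Km, 100mM KPO4 buffer, 60 min reaction at room temperature.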

[14] = molecular target: 3',5'-cyclic-AMP phosphodiesterase 4B (Homo sapiens) (UniProt Q07343); assay: qHTS Assay for Inhibitors of PDE-IV (AID 607; active = well fitted activation curve with a large enough effect in the main read-out, with a control signal flat, not every such curve was filed as active; inconclusive = small, poorly fitted or top-dose-only effect, or effect the other way, or a change in a side signal; also: potency is read from the fitted curve at half-maximal effect); details: HEK293 ACTOne CNG channel cells, membrane potential fluorescence; series mostly up to 22.9 µM
How it was run: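 Cell-based read-out of cAMP via a modified cyclic nucleotide-gated channel and membrane potential dye (535/590 nm) in HEK293 cells expressing PDE4 endogenously. Compounds tested up to 22.9 uM final; 100 uM RO 20-1724 reference.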

[15] = molecular target: Cytochrome P450 2C19 (Homo sapiens) (UniProt P33261); assay: qHTS for inhibitors of CYP2C19 against the NCATS DSHEA and TCM libraries (AID 1919974)
How it was run: (§1)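 Read-out is luminescence after P450-Glo detection (30 min, RT). Before that: 15 min compound–enzyme preincubation, then 30-45 min reaction with 1x NADPH regeneration solution, substrate concentration isoform-specific.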

[16] = molecular target: Cytochrome P450 1A2 (Homo sapiens) (UniProt P05177); assay: qHTS for inhibitors of CYPIA2 against the NCATS DSHEA and TCM libraries (AID 1919976); also: potency is read from the fitted curve at half-maximal effect
How it was run: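 CYP1A2 + luciferin substrate, 100 mM KPO4-type buffer; cmpd 15 min RT; 1x NADPH regen, 30-45 min RT dark; detection reagent 30 min RT; luminescence. Minus-enzyme wells as background; furafylline intraplate control.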

[17] = molecular target: Nuclear receptor subfamily 1 group I member 2 (Homo sapiens) (UniProt O75469); assay: Dual reporter qHTS for agonist of Pregnane X Receptor (hPXR) against the NCATS DSHEA and TCM libraries: Luminescence readout (AID 1920059); also: potency is read from the fitted curve at half-maximal effect
How it was run: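 Luminescent PXR reporter read (ONE-Glo) after a CellTiter-Fluor viability read, following 24 h, 37C treatment of HepG2 cells stably carrying hPXR-Luc.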

[18] = molecular target: Nuclear receptor subfamily 1 group I member 2 (Homo sapiens) (UniProt O75469); assay: Dual reporter qHTS for antagonist of Pregnane X Receptor (hPXR) against the NCATS DSHEA and TCM libraries: Luminescence Readout (AID 1920060);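 also: HepG2 cells carrying hPXR luciferase reporter stimulated with rifampicin at 2 µM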
How it was run: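 In antagonist mode, 2 uM rifampicin was added to hPXR-Luc HepG2 cells alongside test substances, incubated 24 h at 37 C; luminescence gave reporter activity, and CellTiter-Fluor fluorescence (405/540 nm) gave viability.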

[19] = molecular target: Cytochrome P450 3A4 (Homo sapiens) (UniProt P08684); assay: qHTS for inhibitors of CYP3A4 against the NCATS DSHEA and TCM libraries (AID 1919971); also: potency is read from the fitted curve at half-maximal effect
How it was run: as §1

[20] = KB-3-1 P-gp reporter qHTS against the NCATS DSHEA and TCM libraries (AID 1919975); details: KB-3-1 parental cells, CellTiter-Glo luminescence viability, 72 h; also: potency is read from the fitted curve at half-maximal effect
How it was run: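 Cell viability by CellTiter-Glo luminescence following ~72 h compound exposure (concentration-response). Uses parental, non-P-gp-overexpressing KB-3-1 line, 500 cells/well in DMEM/10% FBS, attached ~4 h before dosing.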

[21] = KB-8-5-11 P-gp reporter qHTS against the NCATS DSHEA and TCM libraries (AID 1919977); details: KB-8-5-11 cells; also: potency is read from the fitted curve at half-maximal effect
How it was run: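 CellTiter-Glo luminescence measured viability after ~72 h exposure (37C, 5% CO2) of KB-8-5-11 cervical adenocarcinoma cells overexpressing P-gp. Colchicine was omitted during assay. Substances were tested as titrations.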
Tags tell the direction and shape of the fitted curve or compound fluorescence and quenching.

Sequence of UniProt P05177 (P05177 whole entry, looked up): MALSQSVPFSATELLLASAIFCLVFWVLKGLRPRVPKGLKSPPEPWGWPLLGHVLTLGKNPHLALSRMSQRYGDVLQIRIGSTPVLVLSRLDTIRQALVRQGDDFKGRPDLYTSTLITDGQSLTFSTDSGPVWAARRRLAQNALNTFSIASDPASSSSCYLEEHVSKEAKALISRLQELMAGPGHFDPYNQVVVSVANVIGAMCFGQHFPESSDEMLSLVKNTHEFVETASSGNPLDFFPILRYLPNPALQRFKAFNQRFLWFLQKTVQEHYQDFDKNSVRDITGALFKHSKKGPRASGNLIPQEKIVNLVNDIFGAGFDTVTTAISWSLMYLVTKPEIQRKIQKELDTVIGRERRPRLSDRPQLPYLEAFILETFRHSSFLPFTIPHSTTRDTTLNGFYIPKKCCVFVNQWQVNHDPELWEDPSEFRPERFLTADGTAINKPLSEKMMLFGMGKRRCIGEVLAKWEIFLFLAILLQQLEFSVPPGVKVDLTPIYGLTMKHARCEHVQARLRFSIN
Sequence of UniProt O75469 (O75469 whole entry, looked up): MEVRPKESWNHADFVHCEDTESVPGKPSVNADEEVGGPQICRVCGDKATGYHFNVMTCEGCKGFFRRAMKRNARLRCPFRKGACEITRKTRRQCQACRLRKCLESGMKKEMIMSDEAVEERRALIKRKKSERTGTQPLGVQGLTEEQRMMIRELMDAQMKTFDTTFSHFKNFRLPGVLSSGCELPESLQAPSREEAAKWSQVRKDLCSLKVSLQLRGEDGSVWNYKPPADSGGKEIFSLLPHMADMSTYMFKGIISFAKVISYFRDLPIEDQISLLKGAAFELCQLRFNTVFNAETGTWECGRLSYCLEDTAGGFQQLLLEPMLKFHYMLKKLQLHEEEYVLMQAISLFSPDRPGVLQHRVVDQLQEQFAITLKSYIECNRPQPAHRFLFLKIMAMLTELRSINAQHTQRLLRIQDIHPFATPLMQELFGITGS
Sequence of UniProt P33261 (P33261 whole entry, looked up, canonical isoform): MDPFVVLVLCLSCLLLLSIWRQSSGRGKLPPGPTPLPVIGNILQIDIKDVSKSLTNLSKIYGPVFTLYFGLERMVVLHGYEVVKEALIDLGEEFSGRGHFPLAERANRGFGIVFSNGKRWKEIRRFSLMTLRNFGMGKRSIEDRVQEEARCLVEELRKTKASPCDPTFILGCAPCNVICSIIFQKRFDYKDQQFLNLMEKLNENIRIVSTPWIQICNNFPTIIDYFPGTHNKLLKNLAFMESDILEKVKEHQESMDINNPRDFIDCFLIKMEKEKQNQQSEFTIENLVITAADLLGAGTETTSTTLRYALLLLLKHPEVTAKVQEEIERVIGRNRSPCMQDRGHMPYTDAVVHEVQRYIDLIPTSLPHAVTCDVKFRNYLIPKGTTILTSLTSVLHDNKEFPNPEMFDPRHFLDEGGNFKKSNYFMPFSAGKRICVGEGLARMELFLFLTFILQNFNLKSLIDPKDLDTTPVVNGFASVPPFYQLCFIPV
Sequence of UniProt P08482 (P08482 whole entry, looked up): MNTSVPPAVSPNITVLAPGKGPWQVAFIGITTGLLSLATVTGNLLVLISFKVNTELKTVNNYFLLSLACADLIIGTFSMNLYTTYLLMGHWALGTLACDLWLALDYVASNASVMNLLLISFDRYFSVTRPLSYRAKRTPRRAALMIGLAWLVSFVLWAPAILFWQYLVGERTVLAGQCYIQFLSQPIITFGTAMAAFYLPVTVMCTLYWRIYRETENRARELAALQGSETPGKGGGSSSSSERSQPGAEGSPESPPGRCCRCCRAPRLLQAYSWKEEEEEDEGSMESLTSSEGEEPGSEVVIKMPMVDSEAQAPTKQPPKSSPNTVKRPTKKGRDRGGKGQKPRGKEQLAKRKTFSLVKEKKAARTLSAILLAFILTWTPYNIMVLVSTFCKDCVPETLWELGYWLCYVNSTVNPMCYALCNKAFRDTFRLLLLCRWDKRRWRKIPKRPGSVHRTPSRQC
Sequence of UniProt Q07343 (Q07343 whole entry, looked up): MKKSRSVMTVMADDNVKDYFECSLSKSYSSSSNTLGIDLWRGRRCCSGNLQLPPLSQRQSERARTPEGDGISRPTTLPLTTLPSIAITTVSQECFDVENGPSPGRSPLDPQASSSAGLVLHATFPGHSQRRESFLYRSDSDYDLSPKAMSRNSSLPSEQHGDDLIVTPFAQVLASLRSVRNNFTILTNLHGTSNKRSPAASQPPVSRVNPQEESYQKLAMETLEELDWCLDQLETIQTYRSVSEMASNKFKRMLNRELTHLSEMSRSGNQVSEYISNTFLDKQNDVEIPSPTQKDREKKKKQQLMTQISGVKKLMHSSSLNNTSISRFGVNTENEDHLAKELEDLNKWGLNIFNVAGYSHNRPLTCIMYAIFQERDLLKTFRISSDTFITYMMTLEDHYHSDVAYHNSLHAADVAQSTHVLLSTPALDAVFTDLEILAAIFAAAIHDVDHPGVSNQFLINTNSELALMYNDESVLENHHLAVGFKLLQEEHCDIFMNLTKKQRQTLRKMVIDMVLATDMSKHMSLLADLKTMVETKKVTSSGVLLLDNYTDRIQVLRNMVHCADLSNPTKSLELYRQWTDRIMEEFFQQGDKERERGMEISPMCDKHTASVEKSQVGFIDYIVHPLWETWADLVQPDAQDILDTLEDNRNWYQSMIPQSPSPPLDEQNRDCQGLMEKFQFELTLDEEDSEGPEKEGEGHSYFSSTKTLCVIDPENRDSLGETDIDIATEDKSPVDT
Sequence of UniProt P02791 (P02791 whole entry, looked up): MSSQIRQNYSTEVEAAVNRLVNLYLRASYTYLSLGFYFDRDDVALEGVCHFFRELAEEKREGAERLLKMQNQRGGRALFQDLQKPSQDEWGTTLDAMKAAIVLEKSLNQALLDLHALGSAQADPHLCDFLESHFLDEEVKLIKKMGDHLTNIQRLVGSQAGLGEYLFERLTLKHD
Sequence of UniProt P08684 (P08684 whole entry, looked up): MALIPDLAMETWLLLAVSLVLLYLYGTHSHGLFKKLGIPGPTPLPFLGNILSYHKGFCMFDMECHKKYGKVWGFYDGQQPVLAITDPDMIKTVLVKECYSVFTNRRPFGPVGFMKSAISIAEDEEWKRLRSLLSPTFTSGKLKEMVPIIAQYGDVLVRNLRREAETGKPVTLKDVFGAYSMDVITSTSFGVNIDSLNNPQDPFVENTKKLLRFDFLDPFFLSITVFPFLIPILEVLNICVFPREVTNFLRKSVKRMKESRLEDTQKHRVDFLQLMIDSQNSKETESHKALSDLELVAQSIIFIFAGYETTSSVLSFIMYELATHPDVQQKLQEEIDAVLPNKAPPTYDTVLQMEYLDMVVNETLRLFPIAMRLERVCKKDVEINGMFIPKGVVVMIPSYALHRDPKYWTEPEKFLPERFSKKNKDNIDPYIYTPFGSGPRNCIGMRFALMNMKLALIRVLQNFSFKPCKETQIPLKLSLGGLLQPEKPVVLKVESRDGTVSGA

CCCCN1C2CCC1CC(OC(c1ccc(F)cc1)c1ccc(F)cc1)C2 (centres undefined)
Potency [1]: inconclusive [inhibitor, partial curve]
Potency [2]: inconclusive [inhibitor, partial curve]
Potency [3]: active: 10 µM
Potency [4]: active: 398 nM
Potency [5]: active: 2.24 µM
Potency [6]: active: 1.58 µM
Potency [7]: active: 3.98 µM
Potency [8]: inconclusive [inhibitor, partial curve]
Potency [9]: active: 10 µM
Potency [10]: active: 20 µM
Potency [11]: active: 1.85 µM
Potency [12]: active: 7.38 µM

COc1ccc2c(c1O)-c1c(OC)c(OC)cc3c1[C@H](C2)N(C)CC3
Potency [13]: inconclusive [decreasing]
Potency [14]: inconclusive [inhibitor, single point]
Potency [15]: inconclusive [inhibitor, partial curve]
Potency [16]: inconclusive [inhibitor, full curve]
Potency [17]: inconclusive [activator, full curve]
Potency [18]: inactive

C=C[C@H]1CN2CCc3c([nH]c4ccccc34)[C@H]2C[C@@H]1/C(=C\OC)C(=O)OC
Potency [19]: active: 14.1 µM
Potency [15]: active: 7.08 µM
Potency [20]: inconclusive [inhibitor, single point]
Potency [16]: inconclusive [inhibitor, partial curve]
Potency [21]: active: 22.4 µM
Potency [17]: inconclusive [activator, partial curve]
